# Measurements from the supplement of paper PMC11417369.
# The other results are listed elsewhere or left out.
# Tested on: PfHDP1 homeodomain (GST-tagged)
# Assay: gcPBM binding intensity (ln(normalized median fluorescence intensity)); higher = stronger DNA binding
# Outline: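 An Agilent 4 × 180k array carrying primer-extended double-stranded 36-bp intergenic genomic probes and negative controls received GST-tagged P. falciparum DNA-binding domains expressed in E. coli, about 25 μg on average, for 1 h. The binding buffer contained 1× PBS, 1% milk, 0.2 mg/ml BSA, 0.5% salmon testes DNA and 0.03% Triton X-100. Binding intensity is the top Masliner-normalised natural-log median intensity across replicate spots of either probe orientation, read after Alexa488 anti-GST antibody staining and a 488 nm scan.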
row,Sequence,gcPBM binding intensity (ln)
1,TGAATATTTTATGATTGTACATATTATAATAAACAT [XGTACX_site6113],6.5
2,ACAAACAAAGAAAGAACACACATACACAAGATACCT [CACACA_site7353],6.82
3,TTTTTGATATTAAAGGGTACATTATTTACAAAAAAA [XGTACX_site5284],6.11
4,AAAACAAACATTACACGTACAAAACAAGTTATAGAC [XGTACX_site6320],6.47
5,GATCCTGGTTCTTGTGGTACTTGTTCATTTGTTATA [XGTACX_site7164],6.69
6,ATTCTTTTATTTAGTAGTACATTTGTATTTTATTCA [XGTACX_site5790],6.95
7,ATGCTTTTTTATAAAAGTACATAAAGTTTTTACACT [XGTACX_site7307],6.21
8,CTGCCTTCCATACCCACACACTTCCCATATATTTTA [CACACA_site5491],7.01
9,TTAAGAATATTTTCATGTACTCATTTTTTTTGTTAT [XGTACX_site1814],6.19
10,AATAAAAATATATCCACACACATATATAAATATGTA [CACACA_site6415],6.27
11,ATAACTTATTTTTAAAGTACATTATTATATATATAT [XGTACX_site1620],8.37
12,ATTGTAATAAATTGTAGTACATGTAAGGTTTTATTT [XGTACX_site1005],6.56
13,ATTACATATGTGAGTTGTACTATAAATATATAATAT [XGTACX_site3718],7.28
14,TCGAACATTAACATAACACACATATAGATTTATATA [CACACA_site7380],6.59
15,AAACTTATGTTTACATGTACAGAACTTTATATTATG [XGTACX_site4843],6.31
16,TATTATATATATAGGTGTACGCATTTGTCCTTTATA [XGTACX_site1385],6.59
17,TTGTATGCTTCCCGACTACATTATGCCATAAATGTA [TGCATGCA_negctrl_site136],6.78
18,TTATTCTTTAACTAAAATTATATATATATATTATAC [CACACA_negctrl_site1597],6.41
19,TACAATTCGTAATACACACACATATATATATATATT [CACACA_site3751],7.16

row,Sequence,gcPBM binding intensity (ln)
1,TTTATTATCTTATTCACACACATATATATATATATA [CACACA_site2869],9.3
2,ATATATTTTTACCATACACACATATAACAAATATAT [CACACA_site7706],6.96
3,AGAAAAAAAAAAAAAAAAAAAAAATTGAATATATAT [TGCATGCA_negctrl_site55],5.93
4,GAAGAATAAATATGCACACATGCATATATTTTTACA [CACACA_site3459],10
5,TAAAAAAATTTAACATGTACAAATATTGAAAAGGAC [XGTACX_site7608],7.7
6,ATTAAAAAAGAATATACACACCAAAACTGTTTGTTA [CACACA_site4687],6.4
7,TATATATATATATATACATGCATATATATAATATAT [TGCATGCA_site763],9.32
8,GTAAGTTGTGCATTCACACACATATATATATATATA [CACACA_site3303],9.96
9,TTAAGATCCTAAAAAACACACAATTGTGAATAATAA [CACACA_site3872],6.55
10,TTTTGTTTCTATATAAGATGGAAATATAAACTTGTA [CACACA_negctrl_site82],6.11
11,TGTTTTTATAATATTAGTACATAATATACATAATTC [XGTACX_site2787],6.4
12,AATAAATTAATTTTGGGTACATATATATATATATAT [XGTACX_site3807],9.34
13,AAATATATATAAATGAGTACTTATGGTAACATATAT [XGTACX_site6362],6.49
14,AAAAAATATTGAAGTACACACATTATGAACTTTTTT [CACACA_site1733],6.09
15,TTCCACATTTTACAGACACACACAATTTATATTACG [CACACA_site8572],6.84
16,ATAAATAATTATAATTGTACACATATATATATATAC [XGTACX_site3998],6.77
17,AGAGCATAATAAAACACACACATACATACCTATATA [CACACA_site6566],8.72
18,TATATATATAAAAATACACACATGAATGAATATATA [CACACA_site419],6.98
19,TCTTTATTATTCGCCACACACATATATATATATATA [CACACA_site3077],9.38

row,Sequence,gcPBM binding intensity (ln)
1,TTTTAAAAAAAATAAAAAATAAACAATAATAAATAA [CACACA_negctrl_site721],6.32
2,AAAATATAATATAATGCACACATAAAAAAAAAATCA [CACACA_site7922],10.2
3,TATCTGTAAATGGACACACACATATATATATATATA [CACACA_site5926],9.36
4,TATACATACCCACCCACACACAAAAAAAAAAAAAAA [CACACA_site4632],6.63
5,GGGGGCTTTTATAAAAGTACAAAATGAATAAAAATT [XGTACX_site2393],7.93
6,TATACTCATAAATACACACACATATATATATATATA [CACACA_site5822],9.25
7,AAAAAAAAGGAAATAACACACATGTATATATCTATA [CACACA_site6856],6.15
8,TTCATATAGAATTGTACACACAAAAACGACATTGTG [CACACA_site7061],6.89
9,GGGGACGCGGGTGGGGGTACTCACACTATGCAAAAT [XGTACX_site7745],7.86
10,ATATATATATGTATGTATATATATATATATGTTTGA [GTGCAC_negctrl_site561],8.46
11,GTATCAATAAAAAACAGTACATATATAATATATTTA [XGTACX_site1083],6.24
12,ATATTGTGTTATAAATGTACACAATTTCCTTTCATA [XGTACX_site7481],6.38
13,TTTTTAAAAATATACACACACAGATATTATATATAT [CACACA_site786],6.94
14,ATATATGTTCCTTTTACACACATAATCTTTTTTTTA [CACACA_site2661],7.08
15,AAAATATAATATAATGCACACATAAAAAAAAAAAAA [CACACA_site7989],9.84
16,AAAATATATAAATATACATGCATAATTAATAGTATA [TGCATGCA_site804],6.39
17,TAATATGAAGATGGCAGTACTCTAGTCAATTTTTAC [XGTACX_site5375],6.12
18,AATTCAAAGAAAAACTGTACGTGTAGCAAACATCCT [XGTACX_site599],6.79
